# According to PubChem BioAssay AID1479 (National Center for Advancing Translational Sciences (NCATS), 2009):
# Hit rate of the full screen: of about 280,000 compounds, about 820 (0.29%) were called active. This list was built around the results that the source calls inconclusive (neither active nor inactive); the mix of calls is not that of the screen. Calls follow the shape of the dose curve; as a rule, active = well fitted curve in either direction with a large enough effect; inconclusive = small, poorly fitted or top-dose-only effect; inactive = flat fitted curve, though single readings scatter. Potencies of inconclusive entries are left out as doubtful fits.
# Experiment: Total Fluorescence Counterscreen for Inhibitors of the Interaction of Thyroid Hormone Receptor and Steroid Receptor Coregulator 2
# Conditions: TRb/SRC2 Texas Red total fluorescence interference; series mostly up to 106 µM; fluorescence change, negative = quenching: at the top concentration
# How it was run: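 Flags fluorescent or light-absorbing compounds by total fluorescence, S + 2P, at 555 nm excitation and 632 nm emission. Mixture: 20 nM Texas Red SRC2 peptide, 0.6 uM human TRb LBD, 1 uM T3, 5% DMSO; compound exposure 5 h at ambient temperature.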
# % is scaled to controls: 0 for no effect and ±100 for the full control effect; potency is read from the fitted curve at half-maximal effect; tags tell the direction and shape of the fitted curve or compound fluorescence and quenching.
Compound,Potency,"fluorescence change, negative = quenching"
COc1ccc(-c2nc(CS(=O)CC(=O)NCc3ccccc3OC)c(C)o2)cc1 (stereo unspecified),"inconclusive [falling, full curve, poor fit]",–
COCCCNC(=O)CCCCn1c(=O)c2ccccc2n(CC(=O)Nc2ccc(C)cc2C)c1=O,"inconclusive [falling, partial curve, poor fit]",–
Cn1nc(-c2ccc(C(=O)Nc3ccc(F)cc3)cc2)c2ccccc2c1=O,"inconclusive [falling, full curve, poor fit]",–
O=c1c(S(=O)(=O)c2ccccc2)cn(Cc2ccccc2)c2cc(N3CCOCC3)c(F)cc12,"inconclusive [quencher, full curve]",–
COc1ccc(N=CC2=C(O)c3ccccc3C2=O)cc1,–,inactive: -2.2%
CCOC(=O)c1sc2cccc(F)c2c1S(=O)(=O)N1CCN(c2cccc(Cl)c2)CC1,"inconclusive [falling, full curve, poor fit]",–
Cc1ccc(C(C)C)c(OCC(=O)Nc2cccc(NC(=O)c3ccco3)c2)c1,"inconclusive [quencher, partial curve]",–
COc1cccc(C2=CC(c3ccc(OC)c(OC)c3OC)n3ncnc3N2)c1 (stereo unspecified),"inconclusive [falling, partial curve, poor fit]",–
Cc1cccc(NS(=O)(=O)c2ccc3[nH]c(=O)ccc3c2)c1C,"inconclusive [falling, full curve, poor fit]",–
COc1ccc(CNc2ncnc3onc(C)c23)cc1,"inconclusive [falling, partial curve, poor fit]",–
CN(C)CCNC(=O)c1ccc(-n2c(-c3ccccc3)cc3c2CCCC3)cc1,"inconclusive [falling, full curve, poor fit]",–
CC(C)Oc1ccc(CNC(=O)CCCn2c(=O)c3cccn3c3ccccc32)cc1,"inconclusive [falling, full curve, poor fit]",–
Cc1cc2cc(CNS(=O)(=O)c3ccccc3)ccc2n1C,active: 50.1 µM [fluorescent],–
Cc1ccc(NCc2cccn2-c2nnc(N3CCC(C(=O)NC(C)C)CC3)s2)cc1,"inconclusive [falling, full curve, poor fit]",–
O=S(=O)([N-]c1nc2ccccc2nc1-[n+]1ccc(CCCc2ccccc2)cc1)c1cccs1,–,inactive: -0.617%
COc1cc(/C=C2\SC(c3ccc(C)cc3)=NC2=O)cc(OC)c1OC,–,inactive: -0.349%
Cc1ccc(Nc2nc(-c3c(C)nc4ncccn34)cs2)cc1,–,inactive: -10.4%
ClCCl,–,inactive: -0.243%
O=C(COc1ccccc1F)OCc1cc(=O)n2nc(-c3cccs3)sc2n1,"inconclusive [falling, partial curve, poor fit]",–
COc1ccc(CCNC(=O)Cn2c(=O)n(CCCC(=O)NCc3ccco3)c(=O)c3sccc32)cc1OC,"inconclusive [rising, single point]",–
N#CC1=C(N)C(C#N)(C#N)C(c2ccncc2)C2CN(C(=O)OCc3ccccc3)CC=C12 (stereo unspecified),–,inactive: 4.69%
COc1ccc(/C=C(/C#N)C(=O)Nc2ccccc2C)cc1C(=O)O,"inconclusive [falling, partial curve, poor fit]",–

Compound,Potency,"fluorescence change, negative = quenching"
COc1cccc(CNC(=O)C2CCN(C(=O)c3sccc3-n3cccc3)CC2)c1,"inconclusive [falling, full curve, poor fit]",–
CC(C)C(=O)NC(c1cccs1)c1cc([N+](=O)[O-])c2cccnc2c1O (stereo unspecified),–,inactive: 1.96%
O=C(NCCCN1CCCCC1)c1ccc2c(c1)sc1nc(-c3ccc(F)cc3)cn12,active: 0.0009 µM [quencher],–
CCCn1c2ccccc2c2cnn(CC(=O)NC(C)CC)c(=O)c21 (stereo unspecified),"inconclusive [quencher, full curve]",–
CCOc1ccc(CCNC(=O)CN2C(=O)COc3ccc(S(=O)(=O)N(CC)CC)cc32)cc1,"inconclusive [falling, full curve, poor fit]",–
COc1ccccc1CNC(=O)C(=O)NCC(c1cccnc1)N1CCN(c2ccc(F)cc2)CC1 (stereo unspecified),"inconclusive [falling, partial curve, poor fit]",–
CCOC(=O)c1cc(CC)sc1NC(=O)COc1ccccc1C,active: 1.58 µM [quencher],–
O=c1cc(-c2ccccc2)[nH]n1-c1nc2ccccc2s1,"inconclusive [falling, single point]",–
COc1ccc(C(=O)Oc2ccc(C3NC(=O)c4c(sc5c4CCN(C)C5)N3)cc2OC)cc1 (stereo unspecified),"inconclusive [falling, partial curve, poor fit]",–
CCOc1ccc(-c2[nH]ncc2Oc2ccccc2OC)c(O)c1,–,inactive: -8.37%
Cc1nn(-c2ccccc2)c(Cl)c1/C=N/Nc1ccc(S(=O)(=O)Nc2ccccc2C(=O)O)cc1[N+](=O)[O-],"inconclusive [falling, single point]",–
CCCc1[nH]nc2c1C(c1cn[nH]c1-c1ccc(F)cc1)C(C#N)=C(N)O2 (stereo unspecified),"inconclusive [falling, partial curve, poor fit]",–
CCOc1cc(CNCCSc2nnnn2C)cc(Cl)c1OCc1ccc(Cl)cc1,active: 20 µM [quencher],–
COC(=O)c1c(NC(=O)COc2ccc(Cl)cc2C)sc2c1CCCCC2,"inconclusive [falling, full curve, poor fit]",–
CCCCN(CC)C(=O)C1CCC(CNS(=O)(=O)c2cccc3nsnc23)CC1 (stereo unspecified),"inconclusive [falling, full curve, poor fit]",–
O=C(Nc1ccccc1)N(Cc1cccs1)c1ccc(Cl)cc1,"inconclusive [falling, partial curve, poor fit]",–
CC1=C([N+](=O)[O-])C(c2cccc(Br)c2)C2=C(N1)c1ccccc1C2=O (stereo unspecified),–,inactive: -0.492%
Cc1cccc(NC(=S)NCc2ccc3c(c2)cc(C)n3C)c1C,–,inactive: -6.1%
CCOc1ccccc1CNC(=O)c1cc2oc3ccccc3c2n1CC,"inconclusive [quencher, full curve]",–
O=c1[nH]c2ccc(S(=O)(=O)Nc3cc(Cl)ccc3O)cc2o1,"inconclusive [falling, full curve, poor fit]",–
CC(=O)c1c(C)[nH]c(C(=O)CSc2nc3ccccc3n2C)c1C,–,inactive: 2.5%
CCn1c(SCC(=O)Nc2nc(-c3ccccc3)cs2)nnc1-c1ccccc1,–,inactive: -2.69%

Compound,Potency,"fluorescence change, negative = quenching"
CCCn1c2ccc(C)cc2c2nnc(SCCN3CCCCC3)nc21,"inconclusive [falling, full curve, poor fit]",–
CN(CC(=O)Nc1ccc(Cl)cc1)Cc1cc(=O)n2ccsc2n1,–,inactive: -4.44%
COc1ccccc1/C=C(\C#N)C(=O)NCC1CCCO1 (stereo unspecified),"inconclusive [falling, full curve, poor fit]",–
CC(C)Oc1ccc(CNC(=O)c2cnc3sc(N4CCCCCC4)nn3c2=O)cc1,–,inactive: -0.856%
O=C(CCn1c(=O)c2ccccc2n(Cc2ccc(Cl)cc2)c1=O)NCc1ccc2c(c1)OCO2,inconclusive,–
CCc1ccccc1NC(=O)COC(=O)c1cn(CC)c2nc(C)ccc2c1=O,"inconclusive [quencher, full curve]",–
CN(C)S(=O)(=O)c1ccc(NC(=O)/C=C/c2ccccc2Cl)cc1,"inconclusive [falling, full curve, poor fit]",–
O=C(Nc1cc(Cl)ccc1O)c1cc2nc(-c3ccc4c(c3)OCO4)cc(C(F)(F)F)n2n1,"inconclusive [falling, full curve, poor fit]",–
CN(/N=C/c1ccc(O)cc1O)c1ncc(C(F)(F)F)cc1Cl,–,inactive: 0.897%
CCn1c(SCC(=O)OC)nc2sc3c(c2c1=O)CCC3,–,inactive: -6.22%
CCc1ccc(OC(=O)c2sc3ncn(Cc4cccc(F)c4)c(=O)c3c2C)cc1,"inconclusive [falling, partial curve, poor fit]",–
COc1ccc(-c2ccc(/C=C3/C(=N)N4C=CSC4=NC3=O)o2)c([N+](=O)[O-])c1,"inconclusive [quencher, full curve]",–
O=C(c1cc(O)c(O)c([N+](=O)[O-])c1)c1ccccc1F,"inconclusive [rising, partial curve, poor fit]",–
Cc1nc(=O)c(-c2ccccc2)c(C)n1-c1cccc(C(=O)O)c1,–,inactive: -0.661%
Cc1ccccc1NC(=O)CSc1nc2ccc(NC(=O)c3ccco3)cc2s1,"inconclusive [quencher, partial curve]",–
COc1ccc(C2CC(c3ccccc3)=NN2C(=O)COC(=O)c2cc(S(=O)(=O)N3CCOCC3)ccc2Cl)cc1 (stereo unspecified),–,inactive: -2.52% [at 53 µM]
Cc1[nH]c2ccccc2c1/C=N/NC(=S)NC(C)C,–,inactive: -5.62%
COc1ccc(-c2noc(CSc3nnc(C)n3-c3ccc(C)cc3)n2)cc1,"inconclusive [falling, partial curve, poor fit]",–
N#C/C(=C\c1ccc([N+](=O)[O-])o1)C(=O)Nc1ccc(F)cc1,"inconclusive [fluorescent, partial curve]",–
COc1ccc(C(=O)NCCc2nc3ccccc3[nH]2)cc1,"inconclusive [falling, full curve, poor fit]",–
COc1ccc(C2SCCN2C(=S)Nc2ccc(Cl)cc2)cc1 (stereo unspecified),"inconclusive [falling, full curve, poor fit]",–
CCN1CNC(=S)N(Cc2ccccc2)C1,"inconclusive [quencher, full curve]",–
